The source of these data is the supplement of paper PMC3334620.

Whole data set: some 33,000 sequences, median “E-score (-0.5 to 0.5)” near -0.043, cut for the highest 2% near 0.37. The list shows a part of the results.

In the test the target is T1, Upc2 (UniProt Q12151).
T1 sequence: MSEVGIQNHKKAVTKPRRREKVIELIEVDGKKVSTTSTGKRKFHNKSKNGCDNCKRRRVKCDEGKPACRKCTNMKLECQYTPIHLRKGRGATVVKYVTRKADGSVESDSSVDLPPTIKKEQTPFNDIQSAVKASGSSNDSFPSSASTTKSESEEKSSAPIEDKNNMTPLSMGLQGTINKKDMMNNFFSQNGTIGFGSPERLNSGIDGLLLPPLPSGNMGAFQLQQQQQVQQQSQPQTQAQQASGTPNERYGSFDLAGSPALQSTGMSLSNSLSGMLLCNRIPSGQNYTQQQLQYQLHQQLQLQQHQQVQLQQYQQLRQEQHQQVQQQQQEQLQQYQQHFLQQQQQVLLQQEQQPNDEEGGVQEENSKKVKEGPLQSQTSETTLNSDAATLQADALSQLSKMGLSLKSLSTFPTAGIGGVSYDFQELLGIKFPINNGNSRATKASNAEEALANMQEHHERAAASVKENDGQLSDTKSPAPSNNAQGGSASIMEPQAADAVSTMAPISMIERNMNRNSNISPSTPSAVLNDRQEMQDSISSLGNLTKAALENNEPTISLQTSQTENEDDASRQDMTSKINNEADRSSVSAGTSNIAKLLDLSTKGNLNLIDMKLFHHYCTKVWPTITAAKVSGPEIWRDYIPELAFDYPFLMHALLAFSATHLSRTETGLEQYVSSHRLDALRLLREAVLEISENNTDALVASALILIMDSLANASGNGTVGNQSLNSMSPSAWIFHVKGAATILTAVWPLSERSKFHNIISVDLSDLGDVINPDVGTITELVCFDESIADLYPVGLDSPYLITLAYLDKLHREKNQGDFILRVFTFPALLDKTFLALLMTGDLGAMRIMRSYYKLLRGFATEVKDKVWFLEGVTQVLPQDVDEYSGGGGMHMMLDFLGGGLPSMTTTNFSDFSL
As to the kind of experiment: PBM E-score (8-mer binding enrichment) (E-score (-0.5 to 0.5)); higher = stronger / more preferred TF binding; most listed sequences are background and not binding sites. The note with it: protein concentration: 200 nM; construct: GST-full length. The method, then:
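Universal 'all 10-mer' protein binding microarrays (Agilent AMADID 015681) probed with GST-tagged S. cerevisiae TFs (full-length or DBD) made by in vitro transcription/translation (PURExpress), about 100-200 nM. Bound TF was detected with fluorescent anti-GST. Each ungapped 8-mer (which stands for itself and its reverse complement) is scored by the PBM enrichment score (E-score), a modified Wilcoxon-Mann-Whitney statistic from -0.5 to +0.5, computed with the Universal PBM Analysis Suite. Scale: above 0.35 generally sequence-specific binding.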
Consider ATCTAGCC, for which the “PBM E-score” value was -0.0576.
CAGACTCG: the “PBM E-score” value was -0.00735.
In the case of ACCTCAGC it was 0.0604; in that of CTTGCCGA, -0.0823.
The result for CCGCACCG reads 0.14; that for ATTAGCTC, -0.00086; that for ATAACCTA, 0.0374.
On to CACGAAGA, for which the “PBM E-score” value was found to be 0.0935.
In the case of ATGTCATC it was -0.0697; in that of CAACAGCC, -0.0545; in that of CCGGTACA, 0.106.
As for AGTGCCAG, the “PBM E-score” value was -0.28.
As for ACGTAGTA, the “PBM E-score” value was 0.187.
As to ACGGGCGA, the “PBM E-score” value was found to be 0.0658.
Take ACTGATGG: the “PBM E-score” value is -0.32.
As for ACAGGTGC, the “PBM E-score” value was -0.236.
In the case of AAGCATTC it was -0.143; in that of ATTCCGAG, 0.135; in that of CGGGGACC, -0.139.
For TTAAGTAA, the “PBM E-score” value was -0.0932.
In the case of CTAAGGAC it was -0.15; in that of ATTTATGC, -0.0351; in that of GACAAAAC, 0.00835.
For the sequence ACGCTTAG, the “PBM E-score” value was found to be 0.176.
For AATCGTCT, the “PBM E-score” value was determined as 0.0582.
With AGACTACA, the “PBM E-score” value stood at 0.056.
Regarding CAGGTTCG, the “PBM E-score” value was 0.112.
As for AGTGTATG, the “PBM E-score” value was determined as 0.0367.
Turning to AGGCGTCA, the “PBM E-score” value is -0.153.
For the sequence CTAAGGTA, the “PBM E-score” value is -0.146.
In the case of ACTTGTCC it was 0.102; in that of ATTAGCGA, 0.254; in that of ATTACATC, 0.12.
Take CGGAGGCC: the “PBM E-score” value is -0.162.
Take CACTGGCA: the “PBM E-score” value is -0.317.
For the sequence TCATACAA, the “PBM E-score” value is 0.0325.
Take CCAGCTCG: the “PBM E-score” value stood at 0.0516.
As for ATATTCTG, the “PBM E-score” value was determined as 0.0135.
Take CTATTGAA: the “PBM E-score” value is 0.0629.
Take AATACGTC: the “PBM E-score” value was 0.0421.
Turning to CTTACGCA, the “PBM E-score” value stood at 0.146.
Regarding GTCTGCAA, the “PBM E-score” value was -0.2.
For AGGGGATC, the “PBM E-score” value is -0.0382.
For ATTGTCAG, the “PBM E-score” value is -0.0912.
In the case of AGCGACCC it was 0.0376; in that of AGATAAGG, -0.171.
For the sequence AGGTATAT, the “PBM E-score” value is -0.0562.
With ACAAGCCT, the “PBM E-score” value was -0.166.
TAGTGACA: the “PBM E-score” value was -0.099.
On to GGTAGCTA, for which the “PBM E-score” value is -0.154.
In the case of GAGAGACA, the “PBM E-score” value is -0.323.
Turning to CGTAATCC, the “PBM E-score” value stood at 0.12.
For ACTGTACC, the “PBM E-score” value is -0.077.
On to AGCCGCAG, for which the “PBM E-score” value was -0.128.
CTCTGGTA: the “PBM E-score” value is -0.106.
The result for AGCCGTGG reads -0.17.
With ACAAGGTG, the “PBM E-score” value was -0.221.
In the case of GACGAGGA, the “PBM E-score” value is -0.00176.
Consider TATCGCGA, for which the “PBM E-score” value worked out at 0.182.
For the sequence ACCAACTG, the “PBM E-score” value was -0.105.
Turning to AGATCGTC, the “PBM E-score” value is -0.141.
With CATAGTGG, the “PBM E-score” value was -0.138.
As to AGAAGCAG, the “PBM E-score” value was -0.176.
With GGCGATAA, the “PBM E-score” value was -0.146.
Regarding CACATCCC, the “PBM E-score” value was -0.252.
Take ATGATGAA: the “PBM E-score” value is -0.0545.
As to AGGCCGAA, the “PBM E-score” value was -0.00413.
In the case of GACATTAC it was -0.0486.
In the case of AAAGAGGT it was -0.182.
Regarding ACCACTAT, the “PBM E-score” value was -0.0439.
AAGGGATT: the “PBM E-score” value is -0.122.
The result for ACTGAGGA reads -0.0238; that for ACCCAGCG, -0.127; that for ATTTAGCC, -0.0699.
CCATTTAC: the “PBM E-score” value was 0.00989.
Take TGCATGAA: the “PBM E-score” value is 0.0372.
The result for CCACTAAC reads -0.034; that for CACCGTCG, 0.0676.
In the case of AGCAGATA, the “PBM E-score” value is -0.119.
The result for CTTGCATA reads -0.0652.
For GACTCAAC, the “PBM E-score” value stood at 0.034.
Turning to ATTTTGAA, the “PBM E-score” value was found to be 0.00837.
Consider ATTTACGG, for which the “PBM E-score” value amounted to 0.297.
Take GATACAAC: the “PBM E-score” value turned out to be 0.00052.
AAAGTTCA: the “PBM E-score” value was -0.0621.
Regarding ACTTTACG, the “PBM E-score” value stood at 0.409.
The result for TGCCAAAA reads -0.147.
Regarding CGTGGGAA, the “PBM E-score” value was -0.166.
As to GTATTAAC, the “PBM E-score” value came out at 0.194.
For GATAGAGC, the “PBM E-score” value is -0.0519.
As for GGGGATCA, the “PBM E-score” value is -0.184.
Take CTGTCTTC: the “PBM E-score” value was -0.0977.
The result for CAAAGCAC reads -0.222; that for ACTTCGGG, -0.185.
As to AAAGTCCC, the “PBM E-score” value was -0.12.
ACCTTGCT: the “PBM E-score” value was -0.178.
For ATATGGAT, the “PBM E-score” value was 0.0489.
Turning to TAGCGGAA, the “PBM E-score” value stood at 0.155.
Turning to ATCCACTG, the “PBM E-score” value is -0.155.
With ACAGCTAG, the “PBM E-score” value was -0.273.
Regarding CGGCACGC, the “PBM E-score” value is 0.123.
Consider TGCTGTAA, for which the “PBM E-score” value stood at 0.124.
For the sequence CATGGCAA, the “PBM E-score” value was -0.222.
For the sequence AACCTGAA, the “PBM E-score” value was -0.147.
On to GCCGAACA, for which the “PBM E-score” value is 0.0902.
Consider TTCAACAA, for which the “PBM E-score” value came out at 0.0162.
As to CCAACTAG, the “PBM E-score” value is -0.161.
For ACACAGGG, the “PBM E-score” value is -0.17.
With GGGCTTGA, the “PBM E-score” value is -0.268.
As to CCAATTGC, the “PBM E-score” value was -0.138.
